Measurements: the supplement of paper PMC12230231
± gives the standard deviation of the averaged measurements. Restriction of a single-cycle SIVsab GFP reporter by TRIM5α v1-loop variants in CRFK cells. Human variants: read share among cells still uninfected after two challenges over input, higher = gained restriction. Rhesus variants: share among infected cells over input, higher = lost restriction. Reporter dose not given per row. No active / inactive call per row; the paper calls a change when both replicates lie above its controls (mean + 2 SD of stop or wild-type variants, or the top frameshift score). Residues outside the varied loop are taken from Swiss-Prot. The paper reads the human single-substitution scores as noise; they and the rhesus combinations repeat poorly (rank correlation 0.3 to 0.4), indel scores repeat only for the top variants, rhesus substitutions well (0.9).

What follows are sequences tested on SIVsab (simian immunodeficiency virus of sabaeus monkeys), single-cycle GFP reporter, in CRFK cells (assay: enrichment among uninfected cells over input (fold); higher = stronger restriction). Conditions: library: human / rhesus combinations.
Protocol: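 Pools of CRFK cells expressing variants of the TRIM5α v1 loop were challenged with the single-cycle reporter, sorted by GFP and sequenced; mean of two replicates.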

| Sequence | enrichment |
| --- | --- |
| MASGILVNVKEEVTCPICLELLTQPLSLDCGHSFCQACLTANHKKSMLDKGESSCPVCRISYQPENIRPNRHVANIVEKLREVKLSPEGQKVDHCARHGEKLLLFCQEDGKVICWLCERSQEHRGHHTFLTEEVAREYQVKLQAALEMLRQKQQEAEELEADIREEKASWKTQIQYDKTNVLADFEQLRDILDWEESNELQNLEKEEEDILKSLTNSETEMVQQTQSLRELISDLEHRLQGSVMELLQGVDGVIKRTENVTLKKPETFPKNQRRVFRAPDLKGMLEVFRELTDVRRYWVDVTVAPNNISCAVISEDKRQVSSPKPQIIYGARGTLFTFQTFVNFNYCTGILGSQSITSGKHYWEVDVSKKTAWILGVCAGFQPDAMCNIEKNENYQPKYGYWVIGLEEGVKCSAFQDSSFHTPSVPFIVPLSVIICPDRVGVFLDYEACTVSFFNITNHGFLIYKFSHCSFSQPVFPYLNPRKCGVPMTLCSPSS [human TRIM5α, 330-340 = GARGTLFTFQTFV] | 0.124 ± 0.17 |
| MASGILVNVKEEVTCPICLELLTQPLSLDCGHSFCQACLTANHKKSMLDKGESSCPVCRISYQPENIRPNRHVANIVEKLREVKLSPEGQKVDHCARHGEKLLLFCQEDGKVICWLCERSQEHRGHHTFLTEEVAREYQVKLQAALEMLRQKQQEAEELEADIREEKASWKTQIQYDKTNVLADFEQLRDILDWEESNELQNLEKEEEDILKSLTNSETEMVQQTQSLRELISDLEHRLQGSVMELLQGVDGVIKRTENVTLKKPETFPKNQRRVFRAPDLKGMLEVFRELTDVRRYWVDVTVAPNNISCAVISEDKRQVSSPKPQIIYQAPGTRYTFPTLTNFNYCTGILGSQSITSGKHYWEVDVSKKTAWILGVCAGFQPDAMCNIEKNENYQPKYGYWVIGLEEGVKCSAFQDSSFHTPSVPFIVPLSVIICPDRVGVFLDYEACTVSFFNITNHGFLIYKFSHCSFSQPVFPYLNPRKCGVPMTLCSPSS [human TRIM5α, 330-340 = QAPGTRYTFPTLT] | 0.424 ± 0.14 |
| MASGILVNVKEEVTCPICLELLTQPLSLDCGHSFCQACLTANHKKSMLDKGESSCPVCRISYQPENIRPNRHVANIVEKLREVKLSPEGQKVDHCARHGEKLLLFCQEDGKVICWLCERSQEHRGHHTFLTEEVAREYQVKLQAALEMLRQKQQEAEELEADIREEKASWKTQIQYDKTNVLADFEQLRDILDWEESNELQNLEKEEEDILKSLTNSETEMVQQTQSLRELISDLEHRLQGSVMELLQGVDGVIKRTENVTLKKPETFPKNQRRVFRAPDLKGMLEVFRELTDVRRYWVDVTVAPNNISCAVISEDKRQVSSPKPQIIYGAPGTLFQSFTNFNYCTGILGSQSITSGKHYWEVDVSKKTAWILGVCAGFQPDAMCNIEKNENYQPKYGYWVIGLEEGVKCSAFQDSSFHTPSVPFIVPLSVIICPDRVGVFLDYEACTVSFFNITNHGFLIYKFSHCSFSQPVFPYLNPRKCGVPMTLCSPSS [human TRIM5α, 330-340 = GAPGTLFQSFT] | 0.00118 ± 0.00028 |
| MASGILVNVKEEVTCPICLELLTQPLSLDCGHSFCQACLTANHKKSMLDKGESSCPVCRISYQPENIRPNRHVANIVEKLREVKLSPEGQKVDHCARHGEKLLLFCQEDGKVICWLCERSQEHRGHHTFLTEEVAREYQVKLQAALEMLRQKQQEAEELEADIREEKASWKTQIQYDKTNVLADFEQLRDILDWEESNELQNLEKEEEDILKSLTNSETEMVQQTQSLRELISDLEHRLQGSVMELLQGVDGVIKRTENVTLKKPETFPKNQRRVFRAPDLKGMLEVFRELTDVRRYWVDVTVAPNNISCAVISEDKRQVSSPKPQIIYQAPGTRYPTLVNFNYCTGILGSQSITSGKHYWEVDVSKKTAWILGVCAGFQPDAMCNIEKNENYQPKYGYWVIGLEEGVKCSAFQDSSFHTPSVPFIVPLSVIICPDRVGVFLDYEACTVSFFNITNHGFLIYKFSHCSFSQPVFPYLNPRKCGVPMTLCSPSS [human TRIM5α, 330-340 = QAPGTRYPTLV] | 0.00418 ± 0.0028 |

Same assay, conditions: library: insertions and deletions

| Sequence | enrichment |
| --- | --- |
| MASGILVNVKEEVTCPICLELLTQPLSLDCGHSFCQACLTANHKKSMLDKGESSCPVCRISYQPENIRPNRHVANIVEKLREVKLSPEGQKVDHCARHGEKLLLFCQEDGKVICWLCERSQEHRGHHTFLTEEVAREYQVKLQAALEMLRQKQQEAEELEADIREEKASWKTQIQYDKTNVLADFEQLRDILDWEESNELQNLEKEEEDILKSLTNSETEMVQQTQSLRELISDLEHRLQGSVMELLQGVDGVIKRTENVTLKKPETFPKNQRRVFRAPDLKGMLEVFRELTDVRRYWVDVTVAPNNISCAVISEDKRQVSSPKPQIIYGARGTRYQTFVNFNYCTFVNFNYCTGILGSQSITSGKHYWEVDVSKKTAWILGVCAGFQPDAMCNIEKNENYQPKYGYWVIGLEEGVKCSAFQDSSFHTPSVPFIVPLSVIICPDRVGVFLDYEACTVSFFNITNHGFLIYKFSHCSFSQPVFPYLNPRKCGVPMTLCSPSS [human TRIM5α, 8-codon duplication at 339] | 0.231 ± 0.0092 |
| MASGILVNVKEEVTCPICLELLTQPLSLDCGHSFCQACLTANHKKSMLDKGESSCPVCRISYQPENIRPNRHVANIVEKLREVKLSPEGQKVDHCARHGEKLLLFCQEDGKVICWLCERSQEHRGHHTFLTEEVAREYQVKLQAALEMLRQKQQEAEELEADIREEKASWKTQIQYDKTNVLADFEQLRDILDWEESNELQNLEKEEEDILKSLTNSETEMVQQTQSLRELISDLEHRLQGSVMELLQGVDGVIKRTENVTLKKPETFPKNQRRVFRAPDLKGMLEVFRELTDVRRYWVDVTVAPNNISCAVISEDKRQVSSPKPQIIYGARGTRYQTFQTFVNFNYCTGILGSQSITSGKHYWEVDVSKKTAWILGVCAGFQPDAMCNIEKNENYQPKYGYWVIGLEEGVKCSAFQDSSFHTPSVPFIVPLSVIICPDRVGVFLDYEACTVSFFNITNHGFLIYKFSHCSFSQPVFPYLNPRKCGVPMTLCSPSS [human TRIM5α, 3-codon duplication at 337] | 0.219 ± 0.15 |
| MASGILVNVKEEVTCPICLELLTQPLSLDCGHSFCQACLTANHKKSMLDKGESSCPVCRISYQPENIRPNRHVANIVEKLREVKLSPEGQKVDHCARHGEKLLLFCQEDGKVICWLCERSQEHRGHHTFLTEEVAREYQVKLQAALEMLRQKQQEAEELEADIREEKASWKTQIQYDKTNVLADFEQLRDILDWEESNELQNLEKEEEDILKSLTNSETEMVQQTQSLRELISDLEHRLQGSVMELLQGVDGVIKRTENVTLKKPETFPKNQRRVFRAPDLKGMLEVFRELTDVRRYWVDVTVAPNNISCAVISEDKRQVSSPKPQIIYGARGTRYQTFVNGSQSITSGKHYWEVDVSKKTAWILGVCAGFQPDAMCNIEKNENYQPKYGYWVIGLEEGVKCSAFQDSSFHTPSVPFIVPLSVIICPDRVGVFLDYEACTVSFFNITNHGFLIYKFSHCSFSQPVFPYLNPRKCGVPMTLCSPSS [human TRIM5α, 8-codon deletion at 342] | 1.41 ± 0.19 |
| MASGILVNVKEEVTCPICLELLTQPLSLDCGHSFCQACLTANHKKSMLDKGESSCPVCRISYQPENIRPNRHVANIVEKLREVKLSPEGQKVDHCARHGEKLLLFCQEDGKVICWLCERSQEHRGHHTFLTEEVAREYQVKLQAALEMLRQKQQEAEELEADIREEKASWKTQIQYDKTNVLADFEQLRDILDWEESNELQNLEKEEEDILKSLTNSETEMVQQTQSLRELISDLEHRLQGSVMELLQGVDGVIKRTENVTLKKPETFPKNQRRVFRAPDLKGMLEVFRELTDVRRYWVDVTVAPNNISCAVISEDKRQVSSPKPQIYGARGTRYQTFVNFNYCTGILGSQSITSGKHYWEVDVSKKTAWILGVCAGFQPDAMCNIEKNENYQPKYGYWVIGLEEGVKCSAFQDSSFHTPSVPFIVPLSVIICPDRVGVFLDYEACTVSFFNITNHGFLIYKFSHCSFSQPVFPYLNPRKCGVPMTLCSPSS [human TRIM5α, 1-codon deletion at 328] | 0.7 ± 0.09 |
